Hit rate of the full screen: of about 310,000 compounds, about 2,200 (0.71%) showed an effect of 50% or more. Effects have a minus sign here. This is one part of the list.
target: human ether-à-go-go-related gene (hERG) potassium channel (human, UniProt Q12809); test: primary screen, population patch clamp on CHO cells stably expressing hERG
Sequence (Q12809 whole entry, looked up): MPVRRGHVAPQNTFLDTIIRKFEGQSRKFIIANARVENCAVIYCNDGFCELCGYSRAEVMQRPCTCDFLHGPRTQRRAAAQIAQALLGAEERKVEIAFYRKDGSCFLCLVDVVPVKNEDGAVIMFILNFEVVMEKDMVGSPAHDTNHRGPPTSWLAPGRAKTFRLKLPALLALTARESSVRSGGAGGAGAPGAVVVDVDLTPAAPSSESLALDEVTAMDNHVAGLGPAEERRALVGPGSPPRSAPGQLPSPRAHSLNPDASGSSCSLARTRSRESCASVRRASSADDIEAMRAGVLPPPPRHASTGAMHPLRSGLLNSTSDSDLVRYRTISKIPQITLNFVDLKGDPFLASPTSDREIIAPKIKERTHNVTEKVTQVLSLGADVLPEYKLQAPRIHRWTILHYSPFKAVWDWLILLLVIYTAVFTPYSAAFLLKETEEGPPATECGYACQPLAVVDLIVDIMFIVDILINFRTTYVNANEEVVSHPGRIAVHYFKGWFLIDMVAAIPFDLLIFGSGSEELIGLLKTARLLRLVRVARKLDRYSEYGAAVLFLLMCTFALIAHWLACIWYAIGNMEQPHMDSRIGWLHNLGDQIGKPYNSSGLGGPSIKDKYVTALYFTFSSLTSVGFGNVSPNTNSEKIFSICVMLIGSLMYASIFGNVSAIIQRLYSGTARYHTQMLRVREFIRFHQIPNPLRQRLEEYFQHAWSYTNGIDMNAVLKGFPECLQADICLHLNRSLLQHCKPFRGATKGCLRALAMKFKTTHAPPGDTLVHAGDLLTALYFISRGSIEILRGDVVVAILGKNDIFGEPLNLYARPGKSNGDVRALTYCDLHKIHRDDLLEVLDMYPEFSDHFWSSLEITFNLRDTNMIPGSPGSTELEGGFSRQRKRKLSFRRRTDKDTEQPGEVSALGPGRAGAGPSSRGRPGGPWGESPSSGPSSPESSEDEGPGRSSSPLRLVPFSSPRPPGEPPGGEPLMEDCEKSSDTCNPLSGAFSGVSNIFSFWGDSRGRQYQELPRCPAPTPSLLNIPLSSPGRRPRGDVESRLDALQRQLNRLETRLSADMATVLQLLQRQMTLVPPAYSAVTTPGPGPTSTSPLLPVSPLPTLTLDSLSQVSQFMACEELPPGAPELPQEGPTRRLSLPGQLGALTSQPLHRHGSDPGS

Row | Compound | hERG current change (%, negative = inhibition) at 1uM
1 | Cc1ccc(S(=O)(=O)N2CCN(C(=O)Cn3nc(C)c([N+](=O)[O-])c3C)CC2)cc1 | -2.45%
2 | CCOC(=O)c1cnc(-c2ccccc2)nc1Oc1ccccc1 | 7.52%
3 | CC(C)Cc1nnc(NC(=O)C2CC(=O)N(c3ccc4c(c3)OCCO4)C2)s1 (stereo not drawn) | -3.53%
4 | O=C(NCc1cccs1)C1CCN(c2nccs2)CC1 | 3.99%
5 | Cc1cc2ccccc2nc1Br | 7.92%
6 | OCCC1CN(Cc2cccs2)CCN1Cc1ccccc1 (stereo not drawn) | 12.3%
7 | CNS(=O)(=O)c1cccc(C(=O)OCC(=O)Nc2ccc(OC)cc2[N+](=O)[O-])c1 | 13.9%
8 | C/C(CC(=O)NC1CCCC1)=N\NC(=O)Cc1cccs1 | -8.68%
9 | CCC(=O)Nc1ccc(/C=C(\C(C)=O)C(=O)c2ccccc2)cc1 | 11.4%
10 | O=C(CN1C(=O)C2C3C=CC(C3)C2C1=O)OCC(=O)c1ccc(Cl)c([N+](=O)[O-])c1 (stereo not drawn) | 16.5%
11 | CN(Cc1ccccc1)c1oc(COc2ccccc2F)nc1C#N | -4.24%
12 | O=C(c1noc2c1CCCC2)N1CCc2c([nH]c3ccccc23)C1c1ccccn1 (stereo not drawn) | 2.62%
13 | Cc1csc(NC(=O)CSc2ccc(-c3ccc(F)cc3)nn2)n1 | -8.25%
14 | O=C(c1cc2nc(-c3ccco3)cc(C(F)(F)F)n2n1)N1CCc2ccccc2C1 | 2.5%
15 | Cn1cc([C@@H]2C[C@H]3CN(Cc4cccc(Cl)c4)C(=O)[C@]34CCCN24)c2ccccc21 | -33.2%
16 | CCOC(=O)c1sc(N)c(C(=O)OCC)c1C | 12%
17 | Nc1ccccc1SCc1csc(-c2ccc(Cl)cc2)n1 | 10.6%
18 | Cc1nc2ccc(NC(=O)c3cncc(Br)c3)cc2s1 | 9.66%
19 | Cc1ccc2nc3c(cc(C(N)=S)c(=N)n3CCCOC(C)C)c(=O)n2c1 | -65.1%
20 | CCn1c(Cc2ccc(OC)cc2)nnc1SCC(=O)NC1CCCCC1 | 16.1%
21 | Cc1ccc(N(C)C(=O)N2CCN(S(=O)(=O)c3ccc4ccccc4c3)CC2)cc1 | 0.268%
22 | COC(=O)C(NC(C)=O)(Nc1ccc(Br)cn1)C(F)(F)F (stereo not drawn) | 6.68%
23 | CCC(CC)NC(=O)C1CCN(c2ccc(S(=O)(=O)N3CCOCC3)cc2[N+](=O)[O-])CC1 | 5.49%
24 | CN1C2CCC1CC(NC(=O)c1ccc(Cl)cc1)C2 (stereo not drawn) | 12.2%

Source: publication PMC4336329 (PLoS ONE, 2015)
